In a collection of fitness landscapes (doi:10.1016/j.celrep.2020.107928):
Over roughly 81,000 sequences, “one-hybrid fitness for binding parS DNA” has its median near -0.17; the highest 2% begin near 0.51. The list shows a part of the results.

B1: Caulobacter ParB omega fusion; a variant is named by its letters at X, in order, B8GW30 (parent)
chain: MESVVVGEPGMSEGRRGLGRGLSALLGEVDAAPAQAPGEQLGGSREAPIEILQRNPDQPRRTFREEDLEDLSNSIREKGVLQPILVRPSPDTAGEYQIVAGERAWRAAQRAGLKTVPIMVRELDDLAVLEIGIIENVQRADLNVLEEALSYKVLMEKFERTQENIAQTIGKSXSHVANXMRLLXLPDEVQSYLVSGELTAXHARAIAAAADPVALAKQIIEGGLSVRETEALARKAPNLSAGKSKGGRPPRVKDTDTQALESDLSSVLGLDVSIDHRGSTGTLTITYATLEQLDDLCNRLTRGI

Variants of: B1
Assay: one-hybrid fitness for binding parS DNA (scaled: cognate 1, non-cognate 0); higher = stronger binding
Conditions: with parS DNA site
In short: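 Fitness is the rescaled log change in variant-to-wild-type read ratio, measured by Illumina sequencing of plasmids before and after bacterial one-hybrid selection. The scale puts cognate at 1 and non-cognate at 0. Selection of Caulobacter ParB libraries, four specificity codons randomised, took place in E. coli USO with a HIS3 reporter, site 19 bp from the promoter, over 48 hours at 37°C on M9-minus-histidine with 0.1 mM IPTG and 5 mM 3-AT.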

Variant | one-hybrid fitness for binding parS DNA
YFGT | ≤ 0.2
QKKQ | ≤ 0.2
KFTR | ≤ 0.2
PIPS | ≤ 0.2
GACF | ≤ 0.2
GVLR | ≤ 0.2
NHKL | ≤ 0.2
QSCL | ≤ 0.2
VVPI | ≤ 0.2
AKIL | ≤ 0.2
YKQV | ≤ 0.2
WSPR | ≤ 0.2
EHHV | ≤ 0.2
ISCG | ≤ 0.2
YACK | ≤ 0.2
PYNM | ≤ 0.2
GGGS | ≤ 0.2
MSSM | ≤ 0.2
WPPA | ≤ 0.2
IGAV | ≤ 0.2
VEYC | ≤ 0.2
QPVT | ≤ 0.2
STMC | ≤ 0.2
CWGR | ≤ 0.2

Variant | one-hybrid fitness for binding parS DNA
TRLY | ≤ 0.2
KVVG | ≤ 0.2
GTHF | ≤ 0.2
PRGA | ≤ 0.2
HNPC | ≤ 0.2
VMDS | ≤ 0.2
FDSA | ≤ 0.2
SMTV | ≤ 0.2
NENR | ≤ 0.2
KRRN | ≤ 0.2
YYDR | ≤ 0.2
FPVY | ≤ 0.2
VASG | ≤ 0.2
RGPP | ≤ 0.2
TIAG | ≤ 0.2
RMLN | 0.439
VTQV | ≤ 0.2
PFSI | ≤ 0.2
FDVC | ≤ 0.2
AGWS | ≤ 0.2
AGCC | ≤ 0.2
CVPM | ≤ 0.2
RMYI | 0.212
PSRK | ≤ 0.2

Variant | one-hybrid fitness for binding parS DNA
PRLK | ≤ 0.2
KQSA | ≤ 0.2
LWQY | ≤ 0.2
RPAP | ≤ 0.2
ADND | ≤ 0.2
TISR | ≤ 0.2
DIFG | ≤ 0.2
AHQP | ≤ 0.2
RYMN | 0.395
RVCV | ≤ 0.2
DGST | ≤ 0.2
KGQR | ≤ 0.2
PDCA | ≤ 0.2
LSKV | ≤ 0.2
GPPH | ≤ 0.2
LQHI | ≤ 0.2
VVYD | ≤ 0.2
YAGY | ≤ 0.2
QLID | ≤ 0.2
YPYC | ≤ 0.2
SAEN | ≤ 0.2
THEG | ≤ 0.2
PRES | ≤ 0.2
PPHS | ≤ 0.2

Variant | one-hybrid fitness for binding parS DNA
HDRG | ≤ 0.2
QAAY | ≤ 0.2
RTMS | 0.981
LYHH | ≤ 0.2
VSHG | ≤ 0.2
MTKP | ≤ 0.2
LTRT | ≤ 0.2
SVKW | ≤ 0.2
ASKD | ≤ 0.2
MPKT | ≤ 0.2
FQMG | ≤ 0.2
TECL | ≤ 0.2
DNLR | ≤ 0.2
YYWY | ≤ 0.2
ESKI | ≤ 0.2
VWVC | ≤ 0.2
SKPA | ≤ 0.2
CCPY | ≤ 0.2
WIKC | ≤ 0.2
RGLF | ≤ 0.2
NTLS | ≤ 0.2
NNNF | ≤ 0.2
QACG | ≤ 0.2
PWTR | ≤ 0.2

Variant | one-hybrid fitness for binding parS DNA
HVQQ | ≤ 0.2
SLNC | ≤ 0.2
GGIG | ≤ 0.2
RQRV | ≤ 0.2
GLIG | ≤ 0.2
VSAS | ≤ 0.2
LSIY | ≤ 0.2
RFEV | ≤ 0.2
ISTS | ≤ 0.2
PQPL | ≤ 0.2
TAFI | ≤ 0.2
PMMS | ≤ 0.2
VESS | ≤ 0.2
GDCG | ≤ 0.2
DLHR | ≤ 0.2
YVDR | 0.343
LYCY | ≤ 0.2
EIQL | ≤ 0.2
HRVK | ≤ 0.2
KATQ | ≤ 0.2
YEYS | ≤ 0.2
AKCG | ≤ 0.2
REPH | ≤ 0.2
YNQS | ≤ 0.2

Variant | one-hybrid fitness for binding parS DNA
DQQT | ≤ 0.2
EVWT | ≤ 0.2
DYKL | ≤ 0.2
AFNW | ≤ 0.2
EKSE | 0.236
PCIR | ≤ 0.2
IGHT | ≤ 0.2
VLSE | ≤ 0.2
LLDK | ≤ 0.2
TMLA | ≤ 0.2
KKKT | ≤ 0.2
ELNL | ≤ 0.2
CIPR | ≤ 0.2
AEQS | ≤ 0.2
YNPE | ≤ 0.2
QHEC | ≤ 0.2
CTDH | ≤ 0.2
TDKT | ≤ 0.2
RPEG | ≤ 0.2
KTYA | ≤ 0.2
AASG | ≤ 0.2
RNHD | ≤ 0.2
VNIL | ≤ 0.2
IFRA | ≤ 0.2

Variant | one-hybrid fitness for binding parS DNA
NFAR | ≤ 0.2
PEQN | ≤ 0.2
VDAA | ≤ 0.2
LAKL | ≤ 0.2
PITA | ≤ 0.2
GYKG | ≤ 0.2
PMHC | ≤ 0.2
HSNI | ≤ 0.2
VDHS | ≤ 0.2
SNNG | ≤ 0.2
RTPA | 0.363
TFSR | ≤ 0.2
HTPG | ≤ 0.2
PCEY | ≤ 0.2
LRWW | ≤ 0.2
DWMC | ≤ 0.2
AFMV | ≤ 0.2
ATLS | ≤ 0.2
LPPM | ≤ 0.2
GNHS | ≤ 0.2
ILRM | ≤ 0.2
NSKA | ≤ 0.2
RCKI | ≤ 0.2
DKKS | ≤ 0.2

Variant | one-hybrid fitness for binding parS DNA
WSPG | ≤ 0.2
GKGS | ≤ 0.2
THAY | ≤ 0.2
KYDS | ≤ 0.2
CGLS | ≤ 0.2
QNYP | ≤ 0.2
TASG | ≤ 0.2
KWGG | ≤ 0.2
TRHW | ≤ 0.2
LRRL | ≤ 0.2
ANWL | ≤ 0.2
LCDP | ≤ 0.2
WRLW | ≤ 0.2
IYLR | ≤ 0.2
RLNI | ≤ 0.2
KTAF | ≤ 0.2
QIHC | ≤ 0.2
RHYY | 0.438
VKDI | ≤ 0.2
TEPL | ≤ 0.2
CTVD | ≤ 0.2
DSNP | ≤ 0.2
PATQ | ≤ 0.2
PRSY | ≤ 0.2

Variant | one-hybrid fitness for binding parS DNA
SMSG | ≤ 0.2
VLYA | ≤ 0.2
PTAA | ≤ 0.2
NIYG | ≤ 0.2
VPHI | ≤ 0.2
TYDS | ≤ 0.2
ETHR | ≤ 0.2
PHNT | ≤ 0.2
FFGV | ≤ 0.2
MPPS | ≤ 0.2
HYMV | ≤ 0.2
PMAF | ≤ 0.2
QAWA | ≤ 0.2
EQRT | ≤ 0.2
ANMW | ≤ 0.2
ISFR | ≤ 0.2
KDVG | ≤ 0.2
LMRW | ≤ 0.2
SLLH | ≤ 0.2
NWNQ | ≤ 0.2
QHNP | ≤ 0.2
RKMA | 0.54
FDQS | ≤ 0.2
TIVG | ≤ 0.2

Variant | one-hybrid fitness for binding parS DNA
ETKG | ≤ 0.2
PPRT | ≤ 0.2
NSEV | ≤ 0.2
SNIL | ≤ 0.2
RSWL | ≤ 0.2
NIRA | ≤ 0.2
SYLW | ≤ 0.2
YKVS | ≤ 0.2
STHP | ≤ 0.2
ADNV | ≤ 0.2
FNNS | ≤ 0.2
MTRM | ≤ 0.2
ENNS | ≤ 0.2
LHAS | ≤ 0.2
VRNQ | ≤ 0.2
PPRN | ≤ 0.2
MNDD | ≤ 0.2
AGPC | ≤ 0.2
QYAC | ≤ 0.2
RRIH | ≤ 0.2
QSKA | ≤ 0.2
RLNT | 0.908
DKRI | ≤ 0.2
RCGG | 1.01

Variant | one-hybrid fitness for binding parS DNA
DRDY | ≤ 0.2
NDTY | ≤ 0.2
RVGS | 0.954
PYKV | ≤ 0.2
QHGI | ≤ 0.2
VGGG | ≤ 0.2
TFCY | ≤ 0.2
GNLI | ≤ 0.2
THSI | ≤ 0.2
RWTM | 0.22
PPIL | ≤ 0.2
RKWC | 0.887
EMYS | ≤ 0.2
RMMS | 1.03
ADAC | ≤ 0.2
GPCC | ≤ 0.2
SNTK | ≤ 0.2
DLWG | ≤ 0.2
YKTT | ≤ 0.2
RSWT | 0.756
EDGL | ≤ 0.2
VEDR | ≤ 0.2
SFPL | ≤ 0.2
QTNV | ≤ 0.2

Variant | one-hybrid fitness for binding parS DNA
QKFG | ≤ 0.2
HNFW | ≤ 0.2
RGRM | 0.254
LQSI | ≤ 0.2
KQEL | ≤ 0.2
RGMK | ≤ 0.2
VDER | ≤ 0.2
GTEF | ≤ 0.2
VCIC | ≤ 0.2
DWVS | ≤ 0.2
AMAS | ≤ 0.2
TSYG | ≤ 0.2
NTQV | ≤ 0.2
SCPV | ≤ 0.2
MVHR | ≤ 0.2
HLEP | ≤ 0.2
TLSN | ≤ 0.2
QQFL | ≤ 0.2
QTKT | ≤ 0.2
PSTN | ≤ 0.2
FRRQ | ≤ 0.2
PCAV | ≤ 0.2
HRCD | ≤ 0.2
EPYC | ≤ 0.2

Variant | one-hybrid fitness for binding parS DNA
QTAM | ≤ 0.2
EVRL | ≤ 0.2
GGKC | ≤ 0.2
QKHQ | ≤ 0.2
QQYV | ≤ 0.2
GTCQ | ≤ 0.2
RTRF | 0.627
QWKR | ≤ 0.2
ERPI | ≤ 0.2
YCQS | ≤ 0.2
GCYR | ≤ 0.2
EPQP | ≤ 0.2
FSRT | ≤ 0.2
RLLV | ≤ 0.2
EDAR | ≤ 0.2
HSTQ | ≤ 0.2
GLGV | ≤ 0.2
LIKP | ≤ 0.2
